# Reference: PubChem BioAssay (Tox21)
# “And” between values parts separate entries of the source, which are not always exact repeats. Identical values can stand only once. Inconclusive means that the source gave no clear call. Such entries were picked first, then a sample of the others. Where the call is inconclusive, the potency comes from a doubtful curve fit. The source made the active and inactive calls. Calls follow the shape of the dose curve; as a rule, active = well fitted curve in the direction sought with a large enough effect in the repeat runs; inconclusive = weak or mixed curves; inactive = no such curve, though single readings can be large; an effect the other way counts as inactive or inconclusive.
# Test: qHTS RealTime-Glo MT Cell Viability Assay in HepG2 cells - 40 hour (AID 1224870); also: nearly all actives have a fitted effect of over 50% in size
# Conditions: RealTime-Glo luminescence; series mostly up to 76.8 µM
# Procedure, shortened: (§1)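 HepG2 cells mixed with RealTime-Glo MT reagents (NanoLuc plus cell-permeant prosubstrate) were seeded at 600 cells/well, incubated 5 h at 37 C/5% CO2, then pinned with compounds in DMSO; nonlytic luminescence tracked viability during 40 h treatment.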
# Potency is read from the fitted curve at half-maximal effect; tags tell the direction and shape of the fitted curve.
row,SMILES,Potency
1,O=C(N[C@@H]1N=C(c2ccccc2F)c2cccc3c2N(CC3)C1=O)c1cc2ccccc2[nH]1,"inconclusive: 10.7 µM [falling, partial curve]"
2,CCCCCCCCOC(=O)c1ccccc1C(=O)OCCCCCCCC,"inconclusive: 54.8 µM [falling, partial curve, poor fit]"
3,Cn1cc(C2=C(c3cn(C4CCN(Cc5ccccn5)CC4)c4ccccc34)C(=O)NC2=O)c2ccccc21,"inconclusive: 19 µM [falling, partial curve]"
4,CCN(N=O)C(N)=O,inactive

# Test: A CellTox Green Cytotoxicity Assay to monitor cytotoxicity in HEK293 cells - 40 hour (AID 1224871); also: nearly all actives have a fitted effect of over 45% in size
# Conditions: CellTox Green fluorescence; series mostly up to 76.8 µM
# Procedure, shortened: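 Nonlytic real-time cytotoxicity: HEK293 + CellTox Green reagent plated, 5 h preincubation, pintool compound addition (23 nL in DMSO), 37 C for 40 h, fluorescence measured at successive time points.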
row,SMILES,Potency
1,Oc1cc(Cl)c(Cl)cc1Cl,"inconclusive: 54.5 µM [activator, partial curve, poor fit] and inactive"
2,Clc1ccccc1Cl,inactive
3,c1ccc(NNc2ccccc2)cc1,"inconclusive: 39.3 µM [activator, partial curve, poor fit] and active: 24.5 µM"
4,O=P(O)(O)CN(CP(=O)(O)O)CP(=O)(O)O,"inconclusive: 54.9 µM [activator, single point]"
5,O=C(O)COc1nc(Cl)c(Cl)cc1Cl,"inconclusive: 22.4 µM [activator, single point]"

# Test: qHTS RealTime-Glo MT Cell Viability Assay in HEK293 cells - 16 hour (AID 1224872); also: nearly all actives have a fitted effect of over 50% in size
# Conditions: RealTime-Glo luminescence; series mostly up to 76.8 µM
# Procedure, shortened: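 Tox21 10K qHTS, HEK293, 600 cells/well, RealTime-Glo reagent co-dispensed with cells; 5 h preincubation, compound by pintool, 37 C, luminescence at 0–40 h.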
row,SMILES,Potency
1,NC(=S)c1c(Cl)cccc1Cl,inactive
2,Oc1cc(Cl)c(Cl)cc1Cl,"inconclusive: 48.6 µM [cytotoxic, single point]"
3,C[C@H](CN1CCOCC1)C(C(=O)N1CCCC1)(c1ccccc1)c1ccccc1,"inconclusive: 37.6 µM [cytotoxic, partial curve]"
4,CCCCCCCCOC(=O)c1ccccc1C(=O)OCCCCCCCC,inactive
5,CCCCC(CC)COC(=O)Cl (stereo not given),"inconclusive: 61.7 µM [cytotoxic, partial curve, poor fit]"
6,Oc1ccc(Cc2ccc(O)cc2)cc1,"inconclusive: 22 µM [cytotoxic, partial curve, poor fit]"
7,Clc1nc(Cl)nc(Cl)n1,inactive
8,CCOP(=S)(OCC)O/N=C(\C#N)c1ccccc1,inactive
9,Brc1ccc(Oc2cc(Br)c(Br)cc2Br)c(Br)c1,"inconclusive: 43.6 µM [cytotoxic, partial curve] and inconclusive: 49.3 µM [cytotoxic, partial curve]"
10,Nc1c(Cl)c(Cl)nc(C(=O)O)c1Cl,inactive
11,O=P(O)(O)CN(CP(=O)(O)O)CP(=O)(O)O,"inconclusive: 12.1 µM [rising, single point] and inconclusive: 54.9 µM [rising, single point]"
12,C[C@]12CC[C@H](O)CC1=CC[C@@H]1[C@@H]2CC[C@]2(C)C(=O)CC[C@@H]12,"inconclusive: 49 µM [cytotoxic, partial curve] and inconclusive: 49 µM [cytotoxic, single point]"
13,CC(C)(C)c1ccc(OP(=O)(Oc2ccccc2)Oc2ccccc2)cc1,"inconclusive: 55.3 µM [cytotoxic, partial curve, poor fit]"

# Test: qHTS RealTime-Glo MT Cell Viability Assay in HepG2 cells - 8 hour (AID 1224873); also: nearly all actives have a fitted effect of over 55% in size
# Conditions: RealTime-Glo luminescence; series mostly up to 76.8 µM
# Procedure, shortened: as §1
row,SMILES,Potency
1,O=C(N[C@@H]1N=C(c2ccccc2F)c2cccc3c2N(CC3)C1=O)c1cc2ccccc2[nH]1,"inconclusive: 12 µM [falling, partial curve]"
2,CCC[CH2][Sn]([Cl])([Cl])[CH2]CCC,active: 7.86 µM and active: 8.71 µM
3,Cn1cc(C2=C(c3cn(C4CCN(Cc5ccccn5)CC4)c4ccccc34)C(=O)NC2=O)c2ccccc21,"inconclusive: 9.52 µM [falling, partial curve]"
4,CN1C(=O)[C@@H](NC(=O)c2cc3ccccc3[nH]2)N=C(c2ccccc2)c2ccccc21,"inconclusive: 19 µM [falling, partial curve, poor fit]"
5,CC(C)=CCOc1c2occc2cc2ccc(=O)oc12,"inconclusive: 23.9 µM [falling, partial curve]"

# Test: qHTS RealTime-Glo MT Cell Viability Assay in HEK293 cells - 40 hour (AID 1224874); also: nearly all actives have a fitted effect of over 50% in size; as to max response: % is scaled to controls: 0 for no effect and ±100 for the full control effect
# Conditions: RealTime-Glo luminescence; max response: stronger effect = lower value
# Procedure, shortened: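 Cells were seeded together with NanoLuc luciferase and a prosubstrate that viable cells reduce to a luciferase substrate. After a 5 h incubation at 37 C/5% CO2, compounds were added and luminescence was measured repeatedly during 40 h of treatment.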
SMILES,Potency,max response
Oc1cc(Cl)c(Cl)cc1Cl,"inconclusive: 43.3 µM [cytotoxic, partial curve]",inactive: -18.2% and inactive: -12.4%
CC(C)c1ccc(CO)cc1,,inactive: 0.21% and inactive: 0.88%
[CH3][Sn]([CH3])([Cl])[Cl],"inconclusive: 1.57 µM [rising, full curve] and inconclusive: 616 nM [rising, full curve]",
C[C@H](CN1CCOCC1)C(C(=O)N1CCCC1)(c1ccccc1)c1ccccc1,"inconclusive: 53.1 µM [cytotoxic, partial curve]",
CN(C)[C@@H]1C(=O)C(C(N)=O)=C(O)[C@@]2(O)C(=O)C3=C(O)c4c(O)ccc(Cl)c4[C@@](C)(O)[C@H]3C[C@@H]12,"inconclusive: 39.7 µM [cytotoxic, partial curve]",
CCCCC(CC)COC(=O)Cl (stereo not given),"inconclusive: 54.9 µM [cytotoxic, partial curve, poor fit]",
CN(C)[C@@H]1C(=O)C(C(N)=O)=C(O)[C@@]2(O)C(=O)C3=C(O)c4c(O)cccc4[C@@](C)(O)[C@H]3C[C@@H]12,,inactive: 8.71% and inactive: 13.3% and inactive: -4.27%
CCC[CH2][Sn]([Cl])([Cl])[CH2]CCC,active: 88.2 nM and active: 110 nM,
Oc1ccc(Cc2ccc(O)cc2)cc1,"inconclusive: 19.7 µM [cytotoxic, partial curve]",
Cn1cc(C2=C(c3cn(C4CCN(Cc5ccccn5)CC4)c4ccccc34)C(=O)NC2=O)c2ccccc21,"inconclusive: 6.74 µM [cytotoxic, partial curve, poor fit]",
CCc1cc(OC)c(C[C@H](C)N)cc1OC,"inconclusive: 72.1 µM [cytotoxic, partial curve, poor fit]",
Brc1ccc(Oc2cc(Br)c(Br)cc2Br)c(Br)c1,"inconclusive: 55.4 µM [cytotoxic, single point]",
COC(=O)NC(=S)Nc1ccccc1NC(=S)NC(=O)OC,"inconclusive: 21.9 µM [cytotoxic, full curve] and inconclusive: 38.9 µM [cytotoxic, partial curve, poor fit]",
O=P(O)(O)CN(CP(=O)(O)O)CP(=O)(O)O,"inconclusive: 12.1 µM [rising, single point] and inconclusive: 54.9 µM [rising, single point]",
O=C1C=CC(=O)C=C1,"inconclusive: 22 µM [rising, full curve]",
COP(=O)(OC)OC=C(Cl)Cl,,inactive: 12.8% and inactive: 2.89% and inactive: 15.7%
COP(=O)(OC)C(O)C(Cl)(Cl)Cl (stereo not given),"inconclusive: 44 µM [rising, partial curve]",inactive: -4.55% and inactive: 3.86%
O=C(O)COc1nc(Cl)c(Cl)cc1Cl,"inconclusive: 22.4 µM [cytotoxic, partial curve, poor fit]",
C[C@]12CC[C@H](O)CC1=CC[C@@H]1[C@@H]2CC[C@]2(C)C(=O)CC[C@@H]12,"inconclusive: 49 µM [cytotoxic, partial curve] and inconclusive: 43.6 µM [cytotoxic, partial curve]",
CC(C)(C)c1ccc(OP(=O)(Oc2ccccc2)Oc2ccccc2)cc1,"inconclusive: 49.3 µM [cytotoxic, partial curve]",
O=C(NC(=O)c1c(F)cccc1F)Nc1cc(Cl)c(OC(F)(F)C(F)F)c(Cl)c1,"inconclusive: 13.8 µM [cytotoxic, partial curve, poor fit]",
